The record followed here is the antibiotic and cytotoxicity screens of Wong et al. (2023).

One test has as its system HSkMC. The experiment in a line: cytotoxicity call (relative viability < 0.9). The conditions noted are these: 10 µM.
The subject of the next test is HepG2. The experiment in a line: cytotoxicity call (relative viability < 0.9). The conditions noted are these: 10 µM.
The subject of the next test is S. aureus RN4220. Put plainly: growth inhibition call (relative growth <= 0.2). The note with it: 50 µM.

SMILES strings stand for the structures. This is one part of the list.

With `Nc1ncnc2c1ncn2C1OC(COP(=O)(O)OP(=O)([O-])OP(=O)([O-])O)C(O)C1O.[Na+].[Na+]` (stereo not given), the cytotoxicity call with HSkMC and in the test on HepG2 was “inactive” throughout. Besides, the growth inhibition call with S. aureus RN4220 was “inactive”.

Take `COC[C@H](C)N1C[C@H](C)[C@@H](CN(C)Cc2ccc(Oc3ccccc3)cc2)Oc2c(NC(=O)c3ccncc3)cccc2C1=O`: in the test with HSkMC, the cytotoxicity call is “inactive”. For the same molecule, the cytotoxicity call with HepG2 is “active”. The growth inhibition call with S. aureus RN4220 is “inactive”.

On to `C[C@H](CO)N1C[C@H](C)[C@H](CN(C)C(=O)c2ccc3c(c2)OCO3)Oc2ncc(C3=CCCC3)cc2C1=O`, for which the cytotoxicity call in the test with HSkMC and in the test on HepG2 was “inactive” each time. In the test with S. aureus RN4220, the growth inhibition call was “inactive”.

As to `C[C@H](CO)N1C[C@H](C)[C@H](CN(C)Cc2ccc(Oc3ccccc3)cc2)Oc2ccc(NC(=O)Nc3cccc4ccccc34)cc2C1=O`, the cytotoxicity call in the test on HSkMC and with HepG2 was “active” throughout. Also, in the test with S. aureus RN4220, the growth inhibition call was “inactive”.

With `C[C@@H]1CN([C@H](C)CO)S(=O)(=O)c2ccc(C#C[C@@H](C)O)cc2O[C@@H]1CN(C)C(=O)CN(C)C`, the cytotoxicity call with HSkMC and in the test with HepG2 was “inactive” throughout. Moreover, the growth inhibition call in the test with S. aureus RN4220 was “inactive”.

As for `CCS(=O)(=O)Nc1ccc2c(c1)C(=O)N(C)[C@H]1CC[C@H](CC(=O)NCCCN3CCOCC3)O[C@@H]1CO2`, the cytotoxicity call in the test with HSkMC and with HepG2 was “inactive” throughout. The growth inhibition call in the test on S. aureus RN4220 was “inactive”.

For `COc1ccccc1S(=O)(=O)N(C)C[C@H]1OCc2cn(nn2)CCCC(=O)N([C@H](C)CO)C[C@H]1C`, the cytotoxicity call with HSkMC and in the test on HepG2 was “inactive” in each case. The growth inhibition call in the test with S. aureus RN4220 was “inactive”.

For the molecule `Cc1noc(C)c1NC(=O)N(C)C[C@@H]1Oc2c(NC(=O)Nc3ccc(C(F)(F)F)cc3)cccc2C(=O)N([C@@H](C)CO)C[C@H]1C`, the cytotoxicity call in the test with HSkMC and with HepG2 was “inactive” throughout. Further, the growth inhibition call with S. aureus RN4220 was “inactive”.

As for `Cc1noc(C)c1NC(=O)N(C)C[C@@H]1OCCCC[C@@H](C)Oc2ccc(NC(=O)C3CCCCC3)cc2C(=O)N([C@@H](C)CO)C[C@@H]1C`, the cytotoxicity call in the test on HSkMC (human skeletal muscle cells) and in the test with HepG2 was “inactive” throughout. Also, in the test with S. aureus RN4220, the growth inhibition call was “inactive”.

`C[C@H]1CN([C@@H](C)CO)C(=O)CCCn2cc(nn2)CO[C@@H]1CN(C)Cc1ccc(C(=O)Nc2ccccc2N)cc1`: the cytotoxicity call with HSkMC and with HepG2 was “inactive” in each case. The growth inhibition call in the test on S. aureus RN4220 is “inactive”.
